Measurements reported in the supplement of paper PMC8728848.
This is one part of the list.

How the values were obtained:
Experiment in all cases: glycan array binding signal (z-score within array); higher = stronger binding
Settings in all cases: glycan notation: IUPAC condensed, linker removed
[1] = target: Fuc(a1-2)Gal(b1-4)[Fuc(a1-3)]GlcNAc
In short: (§1)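 The binding signal is a Z-score computed within each array and averaged over linkers. Arrays of the same protein sequence at different concentrations or buffers were also averaged together. Data originate from 3228 arrays in the Consortium for Functional Glycomics database, kept only where the protein sequence was available.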

[2] = target: Fuc(a1-2)Gal(b1-4)[Fuc(a1-3)]GlcNAc(b1-2)Man(a1-3)[Fuc(a1-2)Gal(b1-4)[Fuc(a1-3)]GlcNAc(b1-2)Man(a1-6)]Man(b1-4)GlcNAc(b1-4)[Fuc(a1-6)]GlcNAc
In short: as §1

[3] = target: Fuc(a1-2)Gal(b1-4)[Fuc(a1-3)]GlcNAc(b1-2)[Fuc(a1-2)Gal(b1-4)[Fuc(a1-3)]GlcNAc(b1-4)]Man(a1-3)[Fuc(a1-2)Gal(b1-4)[Fuc(a1-3)]GlcNAc(b1-2)Man(a1-6)]Man(b1-4)GlcNAc(b1-4)GlcNAc
In short: as §1

[4] = target: Fuc(a1-2)Gal(b1-4)[Fuc(a1-3)]GlcNAc(b1-3)Gal(b1-4)[Fuc(a1-3)]GlcNAc
In short: as §1

[5] = target: Fuc(a1-2)Gal(b1-4)[Fuc(a1-3)]GlcNAc(b1-3)Gal(b1-4)[Fuc(a1-3)]GlcNAc(b1-3)Gal(b1-4)[Fuc(a1-3)]GlcNAc
In short: as §1

[6] = target: Fuc(a1-2)Gal(b1-4)[Fuc(a1-3)]GlcNAc(b1-3)GalNAc
In short: as §1

[7] = target: Fuc(a1-2)Gal(b1-4)[Fuc(a1-3)]GlcNAc(b1-3)[Neu5Ac(a2-6)Gal(b1-4)GlcNAc(b1-6)]Gal(b1-4)Glc
In short: as §1

[8] = target: Fuc(a1-2)Gal3S(b1-4)GlcNAc
In short: as §1

[9] = target: Fuc(a1-2)Gal6S(b1-3)GlcNAc
In short: as §1

[10] = target: Fuc(a1-2)Gal6S(b1-3)GlcNAc6S
In short: as §1

[11] = target: Fuc(a1-2)Gal6S(b1-4)Glc
In short: as §1

[12] = target: Fuc(a1-2)Gal6S(b1-4)Glc6S
In short: as §1

[13] = target: Fuc(a1-2)[Gal(a1-3)]Gal
In short: as §1

[14] = target: Fuc(a1-2)[Gal(a1-3)]Gal(b1-3)GalNAc
In short: as §1

[15] = target: Fuc(a1-2)[Gal(a1-3)]Gal(b1-3)GalNAc(b1-3)Gal(a1-4)Gal(b1-4)Glc
In short: as §1

[16] = target: Fuc(a1-2)[Gal(a1-3)]Gal(b1-3)GlcNAc
In short: as §1

[17] = target: Fuc(a1-2)[Gal(a1-3)]Gal(b1-3)GlcNAc(b1-2)Man(a1-3)[Fuc(a1-2)[Gal(a1-3)]Gal(b1-3)GlcNAc(b1-2)Man(a1-6)]Man(b1-4)GlcNAc(b1-4)GlcNAc
In short: as §1

[18] = target: Fuc(a1-2)[Gal(a1-3)]Gal(b1-3)GlcNAc(b1-2)Man(a1-3)[Fuc(a1-2)[Gal(a1-3)]Gal(b1-3)GlcNAc(b1-2)Man(a1-6)]Man(b1-4)GlcNAc(b1-4)[Fuc(a1-6)]GlcNAc
In short: as §1

[19] = target: Fuc(a1-2)[Gal(a1-3)]Gal(b1-3)GlcNAc(b1-3)GalNAc
In short: as §1

[20] = target: Fuc(a1-2)[Gal(a1-3)]Gal(b1-3)GlcNAc(b1-6)GalNAc
In short: as §1

[21] = target: Fuc(a1-2)[Gal(a1-3)]Gal(b1-4)Glc
In short: as §1

[22] = target: Fuc(a1-2)[Gal(a1-3)]Gal(b1-4)GlcNAc
In short: as §1

[23] = target: Fuc(a1-2)[Gal(a1-3)]Gal(b1-4)GlcNAc(b1-2)Man
In short: as §1

[24] = target: Fuc(a1-2)[Gal(a1-3)]Gal(b1-4)GlcNAc(b1-2)Man(a1-3)[Fuc(a1-2)[Gal(a1-3)]Gal(b1-4)GlcNAc(b1-2)Man(a1-6)]Man(b1-4)GlcNAc(b1-4)GlcNAc
In short: as §1

[25] = target: Fuc(a1-2)[Gal(a1-3)]Gal(b1-4)GlcNAc(b1-2)Man(a1-3)[Fuc(a1-2)[Gal(a1-3)]Gal(b1-4)GlcNAc(b1-2)Man(a1-6)]Man(b1-4)GlcNAc(b1-4)[Fuc(a1-6)]GlcNAc
In short: as §1

[26] = target: Fuc(a1-2)[Gal(a1-3)]Gal(b1-4)GlcNAc(b1-3)GalNAc
In short: as §1

[27] = target: Fuc(a1-2)[Gal(a1-3)]Gal(b1-4)GlcNAc(b1-3)[Fuc(a1-2)[Gal(a1-3)]Gal(b1-4)GlcNAc(b1-6)]GalNAc
In short: as §1

[28] = target: Fuc(a1-2)[Gal(a1-3)]Gal(b1-4)GlcNAc(b1-6)GalNAc
In short: as §1

[29] = target: Fuc(a1-2)[Gal(a1-3)]Gal(b1-4)[Fuc(a1-3)]Glc
In short: as §1

[30] = target: Fuc(a1-2)[Gal(a1-3)]Gal(b1-4)[Fuc(a1-3)]GlcNAc
In short: as §1

[31] = target: Fuc(a1-2)[Gal(a1-3)]Gal(b1-4)[Fuc(a1-3)]GlcNAc(b1-3)GalNAc
In short: as §1

[32] = target: Fuc(a1-2)[Gal(a1-4)]Gal(b1-4)GlcNAc
In short: as §1

[33] = target: Fuc(a1-2)[GalNAc(a1-3)]Gal
In short: as §1

[34] = target: Fuc(a1-2)[GalNAc(a1-3)]Gal(b1-3)GalNAc(a1-3)[Fuc(a1-2)]Gal(b1-4)GlcNAc
In short: as §1

[35] = target: Fuc(a1-2)[GalNAc(a1-3)]Gal(b1-3)GalNAc(b1-3)Gal(a1-4)Gal(b1-4)Glc
In short: as §1

[36] = target: Fuc(a1-2)[GalNAc(a1-3)]Gal(b1-3)GlcNAc
In short: as §1

[37] = target: Fuc(a1-2)[GalNAc(a1-3)]Gal(b1-3)GlcNAc(b1-2)Man(a1-3)[Fuc(a1-2)[GalNAc(a1-3)]Gal(b1-3)GlcNAc(b1-2)Man(a1-6)]Man(b1-4)GlcNAc(b1-4)GlcNAc
In short: as §1

[38] = target: Fuc(a1-2)[GalNAc(a1-3)]Gal(b1-3)GlcNAc(b1-2)Man(a1-3)[Fuc(a1-2)[GalNAc(a1-3)]Gal(b1-3)GlcNAc(b1-2)Man(a1-6)]Man(b1-4)GlcNAc(b1-4)[Fuc(a1-6)]GlcNAc
In short: as §1

B1: DC-Sign (Homo sapiens), Q9NNX6 (protein)
chain: MSDSKEPRLQQLGLLEEEQLRGLGFRQTRGYKSLAGCLGHGPLVLQLLSFTLLAGLLVQVSKVPSSISQEQSRQDAIYQNLTQLKAAVGELSEKSKLQEIYQELTQLKAAVGELPEKSKLQEIYQELTRLKAAVGELPEKSKLQEIYQELTWLKAAVGELPEKSKMQEIYQELTRLKAAVGELPEKSKQQEIYQELTRLKAAVGELPEKSKQQEIYQELTRLKAAVGELPEKSKQQEIYQELTQLKAAVERLCHPCPWEWTFFQGNCYFMSNSQRNWHDSITACKEVGAQLVVIKSAEEQNFLQLQSSRSNRFTWMGLSDLNQEGTWQWVDGSPLLPSFKQYWNRGEPNNVGEEDCAEFSGNGWNDDKCNLAKFWICKKSAASCSRDEEQFLSPAPATPNPPPA
[1]
  glycan array binding signal (z-score): 0.911
[2]
  glycan array binding signal (z-score): 9.49
[3]
  glycan array binding signal (z-score): -0.174
[4]
  glycan array binding signal (z-score): 12.6
[5]
  glycan array binding signal (z-score): 6.53
[6]
  glycan array binding signal (z-score): -0.126
[7]
  glycan array binding signal (z-score): -0.045
[8]
  glycan array binding signal (z-score): -0.055
[9]
  glycan array binding signal (z-score): -0.179
[10]
  glycan array binding signal (z-score): -0.139
[11]
  glycan array binding signal (z-score): -0.089
[12]
  glycan array binding signal (z-score): -0.161
[13]
  glycan array binding signal (z-score): 0.684
[14]
  glycan array binding signal (z-score): -0.163
[15]
  glycan array binding signal (z-score): -0.097
[16]
  glycan array binding signal (z-score): -0.126
[17]
  glycan array binding signal (z-score): -0.155
[18]
  glycan array binding signal (z-score): 0.153
[19]
  glycan array binding signal (z-score): -0.189
[20]
  glycan array binding signal (z-score): -0.194
[21]
  glycan array binding signal (z-score): -0.125
[22]
  glycan array binding signal (z-score): -0.192
[23]
  glycan array binding signal (z-score): -0.192
[24]
  glycan array binding signal (z-score): -0.158
[25]
  glycan array binding signal (z-score): -0.034
[26]
  glycan array binding signal (z-score): -0.195
[27]
  glycan array binding signal (z-score): -0.109
[28]
  glycan array binding signal (z-score): -0.15
[29]
  glycan array binding signal (z-score): -0.108
[30]
  glycan array binding signal (z-score): -0.13
[31]
  glycan array binding signal (z-score): -0.164
[32]
  glycan array binding signal (z-score): -0.059
[33]
  glycan array binding signal (z-score): -0.104
[34]
  glycan array binding signal (z-score): -0.193
[35]
  glycan array binding signal (z-score): -0.068
[36]
  glycan array binding signal (z-score): -0.122
[37]
  glycan array binding signal (z-score): -0.186
[38]
  glycan array binding signal (z-score): -0.082
